# The source gives no read counts; variants with many changes may rest on few reads.
# B1: LINE1-mini (parent)
# chain: GGCAGAGCUCAACACAGCGUGGCAAAGUGGCUGUGGCUAGACUGCC
# Variants of: B1
# Experiment: self-cleavage, relative activity (ratio to wild type); higher = more cleavage; in vitro, sequencing; the parent is a self-cleaving ribozyme
row,Variant,self-cleavage
1,G5U G33C C37A,0.04
2,A4U U28A A41G,0.03
3,A11C A16U G29U G40U,0.04
4,A4G G5A G27C U32A,0.05
5,G19A G35A C37G,0.02
6,G19C G30U U32C,0.1
7,U9G C10G A11G G17A U32A G33A C45G,0.01
8,A25C C31U C37U,0.1
9,C13A G22A G27C G30U G44U,0.04
10,C8G C15U G19U,0.02
11,U9G G22U C42A,0.14
12,C8A C13A G35A C46A,0.06
13,A4U C31U U38G,0
14,A6G C31U G40U,0.03
15,U9A G27C U28A C37G G40C C46G,0
16,A12U A16U C18U,0
17,C10A A25U A26C U28G,0.09
18,C10G A12G A16U C23U G29A A39C,0.01
19,G21U G27A C42A,0.12
20,A6U U20A G22A G33A C37U,0.03
21,G1C A4C A25G C31U,0.01

row,Variant,self-cleavage
1,A16G C23U U28A,0.84
2,C23G U34G G40U,0.04
3,U28C G36C U38G,0.02
4,C15G G17A U28G,0.14
5,A6U G17C G22U C42A,0.89
6,G7C A11C A16U,0.01
7,G33A U34C A41C,0.05
8,A12G C15U G17U G22A U34C U38A,0.03
9,A6C G7U C13U,0.21
10,U9C C10U C13A A16G U34G C42U,0
11,A12U A16U C23A G30A,0
12,G2U C3G U9A C10G A16C,0.01
13,G5U G7C G22A G27C,0.04
14,C10G A14U A39C,0.03
15,C3A A16G G29U G35A,0.13
16,G5U C15G C18U,0.06
17,A14C C37U C42U G44C C45A,0.06
18,C10G G33A G40C,0.01
19,G5A A24G G27A,0.09
20,C8A C15A G36A U43G,0.07
21,U9A A24C G27U G36C,0.03

row,Variant,self-cleavage
1,U20C G22A C31G G35U,0.01
2,C8A C10U A25G,0.08
3,C10U G17A U32G U34A C42A C45U,0.03
4,U9G C10G G22U U34A G40C,0
5,C8U A25U G40A,0.2
6,G21U G29U C42U,0.51
7,C10A G27U C37A U38A,0
8,C8G A26C G27C,0.03
9,U28G U32C U38C G44A,0
10,A16C C23G G40A C45A,0.01
11,C18G C31A G40C,0.06
12,C3A G5C C18G G22U A25G,0.18
13,A11C G21U G35U,0.03
14,A4C C8U A11G G19A,0.01
15,C8G G36U C45U,0.07
16,U9A C10G G19U G30U G44C,0.01
17,G2U A25C C42U,0.01
18,G7C C8G A26U G36U,0.2
19,A11C U20A G21C,0.01
20,G5A C18G G22U C23G U28G G30U C42G,0.04
21,G1C C10G C13U A26U G44U,0.02

row,Variant,self-cleavage
1,G36U C45U C46G,0.1
2,A4C G30C G33U C42A,0.12
3,G5U G7U C15G G19U C37U,0.45
4,A4U C23G C31A,0.05
5,A4U G29C G40A,0.01
6,C13A G17A A25G G35U G36C A41G,0.01
7,A6U G30U U34A,0.04
8,G7A C23G G29A U32G C42G,0.03
9,G17A G21C G22A U34A G35C,0.03
10,C18G C23G A39G,0.05
11,A6G G17U G44A,0.39
12,G2A U28G C45G,0.27
13,A26U C31U U32A,0.05
14,A4U G5C A12U C31G A41C,0.01
15,A14G G33A C46A,0.04
16,C3G G5U C13U U32C,0.33
17,G5U U9C G17C C45A,0.02
18,C8A C13U U20C,0.24
19,C3U A4C G33U,0.04
20,A4G C13A C46U,0.45

# From the RNAGym collection of RNA variant scans (doi:10.7554/elife.90254)
